These are yes or no findings as the source states them, for the method shown. For some assays here: Binding seen in cells or lysates may run through a third protein. Some results given as binding are weak or reduced against the parent protein; the word gives no strength.
Tests used:
[1] = target: rice yellow stunt virus (RYSV) matrix (M) protein, bait in pGBKT7 (pGBKT7-M) (rice yellow stunt virus) (UniProt Q98664); assay: two-hybrid; screen of a cDNA library of N. cincticeps with RYSV M; 178 positive colonies, 62 sequenced, 27 candidates annotated by BLASTX
[2] = target: RYSV M protein C-terminal fragment (132-262 aa), bait in pGBKT7 (pGBKT7-M-C-terminal) (rice yellow stunt virus) (UniProt Q98664); assay: two-hybrid; Matchmaker Gal4 Two-Hybrid System 3; bait in pGBKT7, prey in pGADT7, co-transformed into yeast AH109; SD/-Leu/-Trp/-His/-Ade/X-alpha-gal plates
[3] = target: RYSV M protein N-terminal fragment (1-131 aa), bait in pGBKT7 (pGBKT7-M-N-terminal) (rice yellow stunt virus) (UniProt Q98664); assay: as above
[4] = target: rice yellow stunt virus (RYSV) matrix (M) protein, bait in pGBKT7 (pGBKT7-M) (rice yellow stunt virus) (UniProt Q98664); assay: as above
[5] = target: RYSV M-GST (pGEX-3X-M) (rice yellow stunt virus) (UniProt Q98664); assay: pull-down; GST pull-down: lysates with M-GST or GST bound to Glutathione Sepharose beads 4 h at 4°C, rinsed with 0.01 M PBS, then incubated with lysate of E. coli with His-NcHig-CCP2 4 h at 4°C; immunoblot with GST-tag and His-tag antibody; only the target purified

The chains behind the UniProt entries cited, without tags or fusion partners. Where a name states a change or a piece, a line headed by the entry shows the natural chain unless it says otherwise. Residues count along the entry.
UniProt Q98664: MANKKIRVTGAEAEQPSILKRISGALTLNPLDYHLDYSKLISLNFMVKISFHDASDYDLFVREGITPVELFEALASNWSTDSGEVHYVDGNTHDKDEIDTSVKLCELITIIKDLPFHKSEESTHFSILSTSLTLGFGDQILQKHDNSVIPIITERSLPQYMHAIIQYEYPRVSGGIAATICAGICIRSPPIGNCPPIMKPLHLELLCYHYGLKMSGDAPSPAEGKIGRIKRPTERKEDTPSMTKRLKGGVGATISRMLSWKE
RYSV M protein N-terminal fragment (1-131 aa), bait in pGBKT7 (pGBKT7-M-N-terminal): residues 1-131 of Q98664
RYSV M protein C-terminal fragment (132-262 aa), bait in pGBKT7 (pGBKT7-M-C-terminal): residues 132-262 of Q98664

Substance: N. cincticeps homolog of the neural factor Hikaru genki (NcHig), clone found in the two-hybrid library screen (from UniProt A0A6M4C732 1-636)
- binding [1]: binds

Substance: NcHig CCP2 domains (396-631 aa), prey in pGADT7 (pGADT7-Nc-CCP2) (from UniProt A0A6M4C732 396-631) (domain or fragment)
- binding [2]: no binding
- binding [3]: no binding
- binding [4]: binds

Substance: His-NcHig-CCP2 (pDEST17-NcHig-CCP2) (from UniProt A0A6M4C732 396-631) (domain or fragment)
- binding [5]: binds
